Assay results published in patent publication US4122184A, “Benzimidazole insecticides” (priority 1977, dated 1978).
The name of at least one read-out is uncertain.

Assays:
[1] = system: Mexican Bean Beetle; assay: Mexican Bean Beetle Test; type: in vivo, Epilachna varivestis (Coleoptera); conditions: 48 h
Method: Cuttings of four six-day old Bountiful snap bean plants containing two leaves with approximately 5 square inches of leaf surface, are placed in water. The leaves are sprayed to wetting with about 5-10 ml. of a formulation containing a pre-determined level of the test compound. Half of the formulation is sprayed on the top surface and half on the bottom surface of the leaf using a DeVilbiss atomizer at 10 psi held at a distance of about 18 inches from the leaf. After the leaves have dried, they are cut from the stem and placed separately in petri dishes. Ten third instar, nonmolting Mexican bean beetle larvae grown on Bountiful snap beans are placed on each leaf. Controls consist of two leaves sprayed with 5 ml. of a 500 ppm malathion formulation (reference standard), two leaves sprayed with the formulation without the active ingredient and two leaves are held as untreated controls. After 48 hours, a mortality count is made and the amount of feeding noted. Moribund larvae are counted as dead.

[2] = system: Southern Armyworm; assay: Southern Armyworm Test; type: in vivo, Prodenia eridania (Lepidoptera); conditions: 48 h
Method: Ten uniform Southern armyworm larvae about 1-1.5 cm. in length, grown on Henderson lima beans, are placed on excized bean leaves in petri dishes. The bean leaves are obtained and sprayed with the insecticide in the same way as are the snap bean leaves in the Mexican bean beetle test. The reference standards in this instance are leaves sprayed with 5 ml. 100 ppm DDT solution. Mortality counts are made 48 hours after spraying and again moribund larvae are counted as dead. Missing larvae which have probably been eaten are considered alive. The same rating scale is used as in the Mexican bean beetle test.

[3] = system: Melon Aphid; assay: Melon Aphid Test; type: in vivo, Aphis gossypii (Hemiptera); conditions: 24 h
Source text: Four blue hubbard squash seeds are planted per container in vermiculite and the containers watered from the bottom. After 6 days, the two weakest plants are cut off and one cotyledon and the primary leaves are removed from each of the two remaining plants. The remaining cotyledon is infested with 100 melon aphids from a stock colony by pinning the cotyledon against an aphid-infested squash cotyledon from the colony and allowing the aphids to transfer. After transfer, the colony leaf is removed. Forty-eight hours later, the infested leaves are sprayed to wetting with formulations containing graded amounts of the insecticide using a DeVilbiss atomizer at 10 psi held at 12-15 inches from the plant. Controls consist of two infested, unsprayed squash plants and two infested plants sprayed to wetting with a formulation containing 100 ppm malathion as a reference standard. The mortality is estimated 24 hours after spraying by observation using a 10 power dissecting microscope. The same rating scale is used as before.

[4] = system: Two-spotted Spider Mite; assay: Two-spotted Spider Mite test; type: in vivo, Tetranychus urticae (Acarina); conditions: 48 h
Method: The procedure in this test is the same as that in the previous aphid test, except that about 100 two-spotted spider mites from a stock colony raised on squash plants are transferred to a cut squash cotyledon. The mortality is estimated 48 hours after spraying. The same rating scale is used.

[5] = system: Milkweed Bug; assay: Milkweed Bug Test; type: in vivo, Oncopeltis fasciatus (Hemiptera); conditions: 48 h
Method: Ten adult milkweed bugs are chilled and placed in a test cage. The cages containing the bugs are sprayed with 5 ml. of a test formulation containing a pre-determined amount of the insecticide, using a DeVilbiss atomizer at 10 psi held 33 inches from the top of the cage. After the cage has been allowed to dry, the bugs are fed and watered for 48 hours. A formulation containing 500 ppm of malathion is used as a reference standard and two unsprayed cages are kept as controls. Mortality counts are made 48 hours after spraying. Moribund adults are considered dead. The same rating scale is employed as before.

[6] = system: House Fly; assay: Housefly (Contact) Test; type: in vivo, Musca domestica (Diptera); conditions: 24 h
Method: Rearing cages containing four-day old adult house flies are chilled at 35°-40° F. for about 1 hour. One hundred flies are transferred from the rearing cage to each test cage using a small scoop. The caged flies are kept for 1-2 hours at 70°-80° F. The cages are sprayed in the same manner as described for the milkweed bug with 5 ml. of the test formulation. Two unsprayed cages are held as controls and two cages are sprayed with a 50 ppm DDT formulation as a reference standard. Mortality counts are made 24 hours after spraying. […] The same rating scale is employed as heretofore.

[7] = system: House Fly; assay: Housefly (Stomach) Test; type: in vivo, Musca domestica (Diptera); conditions: 24 h
Method: Ten chilled house flies are taken from the rearing cage and placed in a covered petri dish. Sugar cubes treated with 0.2 ml. of a formulation containing a specified level of the insecticide are placed in the petri dish one hour after the flies have been removed from the chill room. Controls consist of sugar cubes treated with 0.2 ml. of deionized water and cubes treated with 0.2 ml. of a formulation containing 500 ppm of malathion. Mortality counts are made 24 hours later. The same rating scale is used as before.

[8] = system: Oriental Cockroach; assay: Oriental Roach Test; type: in vivo, Blatta orientalis (Orthoptera); conditions: 24 h
Method: A rearing pan of late instar (3-4 months old) roaches is placed in a cold room for about 1 hour. Ten nymphs are taken from the pan and placed in each cage and the caged insects are kept at 70°-80° F. for 1 hour. The test cages are then sprayed in the manner indicated above in the milkweed bug test using 5 ml. of a formulation containing a specified amount of the insecticide. The test cages are held for 72 hours during which time the cockroaches are neither fed nor watered. Controls consist of 2 unsprayed cages, two cages sprayed with the formulation alone and 2 cages with a formulation containing 1000 ppm of heptachlor. Mortality counts are made 24 hours after spraying by shaking the cages lightly. All cockroaches remaining in the bottom are counted as dead.

[9] = system: Boll Weevil; assay: Boll Weevil Test; type: in vivo, Anthonomus grandis (Coleoptera); conditions: 48 h
Source text: The procedure is identical to that employed for the Mexican bean beetle and the Southern armyworm, except that 10 adult boll weevils are placed on cotton leaves that have been dipped into formulations of the test compounds. The same rating scale is used.

Measured: mortality rating

O=[N+]([O-])c1cc(C(F)(F)F)cc2nc(C(F)(F)F)[nH]c12 [A, 2,6-bis(trifluoromethyl)-4-nitrobenzimidazole]
2 (21-30): [7]; 50 ppm
9 (91-100): [1]; 10 ppm | [1]; 25 ppm | [1]; 50 ppm | [1]; 100 ppm | [1]; 250 ppm | [1]; 500 ppm | [1]; 1000 ppm | [2]; 1000 ppm | [3]; 1000 ppm | [4]; 50 ppm | [4]; 100 ppm | [4]; 250 ppm | [4]; 500 ppm | [4]; 1000 ppm | [5]; 250 ppm | [5]; 500 ppm | [5]; 1000 ppm | [6]; 100 ppm | [6]; 250 ppm | [6]; 500 ppm | [6]; 1000 ppm | [7]; 250 ppm | [7]; 500 ppm | [7]; 1000 ppm | [9]; 100 ppm | [9]; 250 ppm | [9]; 500 ppm | [9]; 1000 ppm
8 (81-90): [3]; 250 ppm | [3]; 500 ppm | [4]; 10 ppm | [4]; 25 ppm | [6]; 25 ppm | [6]; 50 ppm
4 (41-50): [5]; 25 ppm | [5]; 50 ppm | [6]; 10 ppm | [8]; 500 ppm
1 (11-20): [3]; 25 ppm
7 (71-80): [1]; 5 ppm | [3]; 100 ppm | [5]; 100 ppm | [7]; 100 ppm | [8]; 1000 ppm
0 (0-10): [3]; 10 ppm | [8]; 100 ppm
3 (31-40): [2]; 250 ppm
5 (51-60): [3]; 50 ppm | [4]; 5 ppm | [5]; 10 ppm | [8]; 250 ppm
6 (61-70): [2]; 500 ppm

Clc1ccc(C(c2ccc(Cl)cc2)C(Cl)(Cl)Cl)cc1 [DDT, reference compound]
7 (71-80): [2]; 100 ppm

CCOC(=O)n1c(C(F)(F)F)nc2c([N+](=O)[O-])cc(C(F)(F)F)cc21 [G, ethyl 2,6-bis(trifluoromethyl)-4-nitro-1-benzimidazolecarboxylate]
6 (61-70): [2]; 1000 ppm
9 (91-100): [1]; 1000 ppm | [3]; 1000 ppm | [4]; 1000 ppm | [5]; 1000 ppm | [6]; 1000 ppm | [9]; 1000 ppm
0 (0-10): [7]; 1000 ppm
